Source: ChEMBL document CHEMBL2331288 (Bioorg Med Chem Lett, 2013)
pIC50: −log10 of the molar value.

Target: T1, Interstitial collagenase (Homo sapiens, UniProt P03956)
T1 sequence (P03956 whole entry): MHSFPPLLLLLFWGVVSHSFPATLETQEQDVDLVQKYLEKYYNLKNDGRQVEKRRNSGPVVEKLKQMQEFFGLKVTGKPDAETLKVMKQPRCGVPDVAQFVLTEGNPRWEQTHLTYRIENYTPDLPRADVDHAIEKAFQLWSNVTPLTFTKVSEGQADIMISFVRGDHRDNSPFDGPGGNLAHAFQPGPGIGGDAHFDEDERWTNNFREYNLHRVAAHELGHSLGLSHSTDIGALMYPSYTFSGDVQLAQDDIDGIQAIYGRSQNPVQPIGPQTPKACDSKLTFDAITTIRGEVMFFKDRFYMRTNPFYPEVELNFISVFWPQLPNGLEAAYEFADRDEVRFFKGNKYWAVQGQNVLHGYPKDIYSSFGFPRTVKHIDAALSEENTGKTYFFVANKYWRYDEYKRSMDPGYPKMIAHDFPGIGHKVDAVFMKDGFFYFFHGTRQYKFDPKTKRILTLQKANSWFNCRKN

Compound | pIC50
O=C(/C=C/c1cccc(O)c1)Nc1cccc(Cl)c1 | 5.47
O=C(/C=C/c1ccc(O)cc1)Nc1ccccc1O | 5.30
O=C(/C=C/c1ccc(O)cc1)Nc1cccc(O)c1 | 5.27
O=C(/C=C/c1ccc(O)cc1)Nc1ccc(F)cc1 | 5.34
O=C(/C=C/c1ccc(O)cc1)Nc1ccccc1Cl | 5.46
O=C(/C=C/c1ccc(O)cc1)Nc1ccc(Cl)cc1 | 5.45
COc1cccc(NC(=O)/C=C/c2ccccc2)c1 | 5.28
O=C(/C=C/c1ccccc1)Nc1cccc(F)c1 | 5.38
O=C(/C=C/c1cccc(O)c1)Nc1cccc(O)c1 | 5.28
Cc1cccc(NC(=O)/C=C/c2cccc(O)c2)c1 | 5.32
O=C(/C=C/c1ccccc1)Nc1ccccc1Cl [N-(2-CHLOROPHENYL)CINNAMAMIDE] | 5.50
COc1ccccc1NC(=O)/C=C/c1ccccc1 [N-(2-METHOXYPHENYL)CINNAMAMIDE] | 5.29
O=C(/C=C/c1ccccc1)Nc1ccc(F)cc1 [N-(4-FLUOROPHENYL)CINNAMAMIDE] | 5.37
